# Test results: PubChem BioAssay AID463173 (ICCB-Longwood Screening Facility, Harvard Medical School, 2010)
# The campaign covered roughly 52,000 compounds. About 1,700 (3.3%) were called active. Rule as the data show it: active = survival mostly below about 52% (no sharp cut-off); inactive = mostly above about 56%. Some of the results follow.
# System: Wild type
# Assay: S. aureus survival, RN4220 and DeltatarO strains – OD600, teichoic acid synthesis inhibitors, primary screen (AID 463173)
# Details: S. aureus RN4220 wild type/DeltatarO growth, OD600, 18 h, active compounds read low, screened at 18.75 µg/mL (by protocol)
row,SMILES,survival
1,CCc1ccc(OC(=O)c2sc3ncn(Cc4cccc(F)c4)c(=O)c3c2C)cc1,inactive: 111%
2,CCCCCNc1nc2c(-c3ccccc3)nnn2c2ccccc12,inactive: 89%
3,CC(C)(C)C1=CC(CO)CC(CO)C1 (stereo unspecified),inactive: 107%
4,Cc1ccc(N2CCN(C(=O)Nc3cn(CC(C)C)c(=O)c4ccccc34)CC2)c(C)c1,inactive: 146%
5,CC(C)CCn1c(=O)c2sccc2n2c(CCCC(=O)Nc3ccc(F)c(Cl)c3)nnc12,inactive: 45%
6,O=C(NCc1ccc(F)cc1Cl)c1ccc(CSCc2ccccc2Cl)o1,inactive: 53%
7,Cc1ccc(NC(=O)c2cc(-c3cccs3)nc3ccccc23)c(C)c1,inactive: 68%
8,CC(C)Oc1ccc(CNC(=O)c2cnc3sc(N4CCCCCC4)nn3c2=O)cc1,inactive: 71%
9,COc1ccccc1NC(=O)Cn1c(=O)n(Cc2nc(C)no2)c(=O)c2cc3c(cc21)OCO3,inactive: 73%
10,COc1ccccc1NC(=O)N1CCOc2ccccc21,inactive: 86%
11,Cc1cc(C)n2nc(CNS(=O)(=O)c3ccc(F)cc3)nc2n1,inactive: 88%
12,CCOc1ccc(/C=C/c2nc(C#N)c(N3CCCCCC3)o2)cc1,inactive: 88%
13,O=C(COc1ccccc1)N1CCNCC1,inactive: 116%
14,Cc1ccc(CNC(=O)c2ccc(CSCc3c(F)cccc3Cl)o2)cc1,inactive: 72%
15,CCn1c(C(=O)NCc2ccccc2)cc2sc(Cl)cc21,active: 2%
16,COc1cccc(CNC(=O)c2ccc(CN3CC(=O)N4CCCCC4C3=O)cc2)c1 (stereo unspecified),inactive: 72%
17,COc1ccccc1/C=C(\C#N)C(=O)NCC1CCCO1 (stereo unspecified),inactive: 137%
18,CCCN(CCC)CCNC(=O)Cn1cnc2sc(C)c(S(=O)(=O)N3CCN(c4ccccc4OC)CC3)c2c1=O,inactive: 71%
19,COC(=O)c1cc2oc3ccccc3c2n1CC(=O)Nc1ccc(C)cc1Cl,inactive: 89%
20,CCOc1ccc(-n2c(SCC(=O)N3CCCc4ccccc43)nc3c([nH]c4ccccc43)c2=O)cc1,inactive: 65%
21,O=C(CCn1c(=O)c2ccccc2n(Cc2ccc(Cl)cc2)c1=O)NCc1ccc2c(c1)OCO2,inactive: 110%

row,SMILES,survival
1,CN(c1ccc(Cl)cc1)S(=O)(=O)c1nnc(NC(=O)c2ccco2)s1,inactive: 69%
2,CCOC(=O)c1[nH]c(C)c(C(=O)NCCc2ccccc2)c1C,inactive: 92%
3,CCOc1ccccc1NC(=O)CCS(=O)(=O)c1ccc(OC)cc1,inactive: 71%
4,CCc1ccc(NC(=O)c2cc(CN3CCOCC3)on2)cc1,inactive: 92%
5,CCCCC(=O)Nc1cccc(-c2nc3ccccc3s2)c1,inactive: 43%
6,CCN1C(=O)C2C(c3ccco3)NC(C(=O)OC)(c3ccccc3)C2C1=O (stereo unspecified),inactive: 101%
7,Cc1cccc(-n2ccnc2SCC(=O)Nc2cc(C(F)(F)F)ccc2Cl)c1,inactive: 72%
8,CCCCN(C)CC(O)Cn1cc(/C=C/C(=O)c2ccc(OCC)cc2)c2ccccc21 (stereo unspecified),active: 21%
9,COc1ccc(-n2ncc3c(=O)n(CC(=O)NC(C)C)cnc32)cc1,inactive: 96%
10,CCOC(=O)C1=C(CN(C)Cc2ccccc2)NC(=O)NC1c1ccc(OC(C)C)cc1 (stereo unspecified),inactive: 81%
11,Cc1ccc2nc(NCCc3ccc(Cl)cc3)c3nncn3c2c1,inactive: 71%
12,COc1ccc(C)cc1NC(=O)Cc1ccc(NC(=O)N2CCCCc3ccccc32)cc1,inactive: 60%
13,CC(C)c1ccc(Nc2c(-c3ccsc3)nc3ccc(Cl)cn23)cc1,inactive: 95%
14,FC(F)(F)c1nnc2c3ccccc3c(Cl)nn12,inactive: 113%
15,CCn1cc(C(=O)NCc2ccccc2Cl)c(=O)c2cc(S(=O)(=O)N3CCOCC3)ccc21,inactive: 74%
16,CCC(=O)C1=C(c2ccccc2)N(C(=O)CC)n2c(nnc2C2CCCCC2)S1,active: 14%
17,O=C(Nc1ccccc1[N+](=O)[O-])c1csnn1,inactive: 76%
18,CCCOc1ccc(CNC(=O)c2cc3oc4ccccc4c3n2C)cc1,inactive: 90%
19,NNc1nc(N2CCOCC2)nc(N2CCOCC2)n1,inactive: 106%
20,Cc1ccc(CNC(=O)c2ccc(NC(=O)c3nsc4ccccc34)cc2)cc1,inactive: 70%
21,COC(=O)c1c(SC)nc2ccccc2c1OCc1cc(C)ccc1C,inactive: 148%

row,SMILES,survival
1,O=C1C2CCCN2C(=O)N1c1ccc(Br)cc1 (stereo unspecified),inactive: 120%
2,O=C(Nc1ccc2nc(SCC(=O)N3CCc4ccccc43)sc2c1)c1ccc(Cl)cc1,inactive: 89%
3,O=C(CSc1nc(-c2cccs2)cc(C(F)(F)F)n1)Nc1ccccc1Cl,inactive: 99%
4,Cc1cccc(C(=O)Nc2sc3c(c2C(=O)Nc2ccccc2)CCC3)c1,inactive: 67%
5,Cc1ccc(NC(=O)CN2C(=O)C(c3ccc(F)cc3)=NC2(C)C)c(C)c1,inactive: 85%
6,CCOc1ccccc1NC(=O)C(=O)NCC(c1cccnc1)N1CCN(c2ccccc2)CC1 (stereo unspecified),inactive: 90%
7,Cc1ccc(C=C2C(=O)N(C)C(=O)N(C)C2=O)cc1,inactive: 96%
8,O=S(=O)(c1ccccc1)c1nnn2c1nc(NC1CCCCCC1)c1sccc12,inactive: 89%
9,Cc1cccc(Cc2c(C)nc3nc(SCc4cccc(F)c4)nn3c2C)c1,inactive: 73%
10,CCOc1ccc(CCNC(=O)CN2C(=O)COc3ccc(S(=O)(=O)N(CC)CC)cc32)cc1,inactive: 119%
11,Cc1ccc(Cn2ccnc2SCC(=O)NC2CCCC2)cc1,inactive: 68%
12,COc1cc(S(=O)(=O)n2ccnc2C(C)C)ccc1Br,inactive: 64%
13,COc1ccccc1CNC(=O)C(=O)NCC(c1cccnc1)N1CCN(c2ccc(F)cc2)CC1 (stereo unspecified),inactive: 83%
14,Cc1ccc(-c2nc(S(=O)(=O)c3ccc(C)cc3)c(N3CCCCC3)o2)cc1,active: 0%
15,COc1nc(C)ccc1-c1noc(-c2ccccc2)n1,inactive: 100%
16,O=S(=O)(c1cccc2nsnc12)N1CCOCC1,inactive: 101%
17,COc1ccc(Cl)cc1NC(=O)Cn1nnc(C(=O)NCc2cccs2)c1N,inactive: 85%
18,COc1ccccc1NC(=O)COC(=O)CC(C)(C)CC1=NS(=O)(=O)c2ccccc2N1,active: -3%
19,COc1ccc2c(CNCc3ccco3)c(C(=O)O)n(Cc3ccccc3)c2c1,inactive: 91%
